Laboratory results as given in the RNAGym collection of RNA variant scans (doi:10.7554/elife.90254).
Read counts are not given, so values of variants with three or more changes are uncertain.

B1: LINE1-mini (parent)
chain: GGCAGAGCUCAACACAGCGUGGCAAAGUGGCUGUGGCUAGACUGCC

Variants of: B1
Test: self-cleavage, relative activity (ratio to wild type); higher = more cleavage; in vitro, sequencing; the parent is a self-cleaving ribozyme

| Variant | self-cleavage |
| --- | --- |
| A4C U32A G35A C46U | 0.07 |
| C3G A4C A6U A12C U32C G40U C45G | 0 |
| G5C G21U A24G | 0.08 |
| G21U C45U C46U | 2.46 |
| C8G A12C C23A U32C G36U U38C | 0 |
| A16U A24G A41U | 0.12 |
| C3U G5U A12C C15A C37G | 0.05 |
| C10U C13G G33A | 0.04 |
| C13U A16C G33A A41C | 0.02 |
| C3G A4C A11G C23A A26C | 0.02 |
| G1C G2C C10U | 0.04 |
| C3G U9A C13A U34C C37U | 0.21 |
| A14C C18G U28C G33A | 0.01 |
| G2C U20G A24U U34A | 0.02 |
| G5C C8G G27C | 0.04 |
| G1A C15G U34C | 0.08 |
| C3G C10A A12U C15A G40A | 0.03 |
| A24G A26G G33U | 0.02 |
| U9G C10U A14G G27A G33U | 0.01 |
| C3U C8U U20C A25G G40U C46U | 0.03 |
| G2A C15U A26G | 0.42 |
| A14U U20C G22U A24U G27C U28G G33U G35U | 0.01 |
| G2U C15U C23A G36U C46A | 0.05 |
| C8A G19A C23U | 0.28 |

| Variant | self-cleavage |
| --- | --- |
| A16G G33C U38G | 0.02 |
| G5C A6C G7A G17U G40A | 0.08 |
| U9G G19C U20G G40A | 0.04 |
| A4U U9C G27C C42A | 0.05 |
| C8U A16C U28C G29C G33U | 0.18 |
| C13A A14G G27A C37A | 0.04 |
| C3U U9A G29A G40C C42U | 0.06 |
| G33U C42A C45A | 0.03 |
| U9A A12G C45A | 0.01 |
| G7C U28A G40C | 0.1 |
| A4C U9G G19A | 0.03 |
| G19C U20G A24C | 0.26 |
| G7A G19C G40A C46U | 0.05 |
| A4C A11C A25G G30C G36U | 0.01 |
| G2U C3U A14C C15U G19A A24C | 0.04 |
| G2A G27U G33A U34C C37A G40A | 0.16 |
| G2C A11G C18A | 0 |
| G2C C10A A39C | 0.02 |
| G7U C13A G19A G30A U32G | 0.11 |
| C10A C13G G44U | 0.01 |
| A11G U20A G35C | 0.01 |
| C10G G17A C23U G33U | 0.02 |
| A4G C13U G19C U32A U34G G40C | 0.11 |
| G1C C15A G33U C45U | 0.03 |

| Variant | self-cleavage |
| --- | --- |
| A6C G17U U20A G27C C37A U38G | 0.01 |
| A24U A26U G36C G40U G44U | 0.04 |
| U20C C23U G29C C31U U34C | 0.05 |
| G5U C8U C15A C31U | 0.15 |
| A24U G27U C31U U34A U43C | 0.02 |
| C10G A26U U43A | 0.02 |
| G5A A6G U9A G36C C46G | 0.02 |
| C3U C18G G36C C46G | 0.04 |
| G2A G7C A24U G30A G36A | 1.21 |
| C23A G33U C42U | 0.17 |
| C8A A11U C31U | 0.11 |
| G7C G29C G36C A41U C46A | 0.03 |
| G5U C8A C13A G40A | 0.47 |
| G2C G17U C37U | 0.01 |
| G29C G30A C45A | 0.36 |
| G5U G33C C46U | 0.03 |
| C13G G17C A25U C45G | 0.01 |
| G7U A16C C23U G44U | 0.24 |
| C3U C8U C15U G30A | 1.1 |
| C3A A11C U28G | 0.05 |
| G1U G5U G17U U34C | 0.08 |
| A4G C8U C10G C18G G29U G40U C45G | 0.01 |
| A12C A14U C23G U28G G29U | 0.03 |
| U20C C23A C45U | 1.03 |

| Variant | self-cleavage |
| --- | --- |
| U9G A25C G40U C46G | 0.01 |
| A4C G30A U34A G36A | 0.02 |
| C3A A4G A39G | 0.52 |
| G7A C13G U20A G36A | 0.2 |
| C3A U34A G35U A39U C42A | 0.04 |
| G7A A25C G33U | 0.38 |
| A11U G21U G29A G33U | 0.04 |
| G2U G19C C23G A24U G33C C45G | 0.01 |
| A12U C13A U34G U43C | 0 |
| A14C C18G G19U | 0.03 |
| C3U G27U U32A C42A U43A | 0.05 |
| C3A G19C C42G G44C | 0 |
| C13G G21C U28C U34A G35U | 0.02 |
| G17C C18A G33U | 0.01 |
| A25U G40U A41C G44A | 0.03 |
| G2A C18A G33A U34C | 0.07 |
| G29U C31A G33U | 0.06 |
| G5U A12C A14U U20A C37U | 0.01 |
| G1A C10A G19A | 0.07 |
| A4C C18G A25C G44C | 0.06 |
| G22A A24C A25C | 0.97 |
| A6G C10A A26G | 0.01 |
| A6U G7U G17U U43C | 0.05 |
| A6G C8U G27U U32A | 0.15 |

| Variant | self-cleavage |
| --- | --- |
| A26U C31G C42A | 0.06 |
| A6G A11C A26U G33A | 0.19 |
| G27U A39C G40A | 0.03 |
| G1U A4G C13A C37U | 0.17 |
| G7A G19C G36U | 0.1 |
| C8G U20A G33U U43C | 0.01 |
| A6C G7U U43C | 0.88 |
| G30A G33A A39G C42U U43G | 0.06 |
| G2U A6U A12G C15A | 0.03 |
| U20G C23G G27C G33C | 0.16 |
| C3G C10U G27A A39G G44U | 0.05 |
| G1C G7U A14U U34C | 0.04 |
| C15G C23A G44A | 0.05 |
| G17C C31U G33A G36A | 0.1 |
| C3U C13U G40C | 0.28 |
| G1C C15A G17A A39U | 0 |
| A14U A16C G17U | 0.07 |
| G1A A4G A26G G30U G40U | 0.07 |
| A4G G5A C37U | 0.03 |
| G5C C18A U32A | 0.07 |
| U34C G40C C42A | 0.09 |
| A14C A26U C45U | 0.11 |
| G2U U32G C37U A39G | 0.01 |
| A6G A11U C13U U32G U34A U43C C45G | 0 |

| Variant | self-cleavage |
| --- | --- |
| C13U C18U A25G G36C | 0.03 |
| A6C C10U G17C G30U U38C G44U | 0.02 |
| U9G G29A C42A G44U | 0.07 |
| A6C C8A G22C | 0.29 |
| C3A G17A G29C G30U C31U U32G | 0.23 |
| G1C G2U G5U | 0.03 |
| G7A G21U C37A | 0.02 |
| G7U A14U C18G A26G C37U C45A | 0.06 |
| A11U U34A G36A U43C | 0 |
| G2A G7C A41U | 0.21 |
| C23U A24C A25U | 0.78 |
| C3G G5C C15U G19A A25C G29U G35C A39G | 0.04 |
| A6G C10U A16C | 0 |
| G1U C10A G29U G40U | 0.01 |
| C3A G5A G21C | 0.17 |
| C23A A26C C37U | 0.02 |
| A12G C37U G40U | 0.1 |
| U20A G30C U43A | 0.07 |
| C3A A4G C13A G35U | 0.36 |
| G2A C8A C13G U20C A24U | 0.35 |
| C15G A16U G29A C31U | 0.02 |
| G22A A24C U32G G40C | 0.02 |
| C18U G35U G36A | 0.03 |
| C10A U20C G27C G30U | 0.03 |

| Variant | self-cleavage |
| --- | --- |
| A4C C8G C13A G17U C23U A26G | 0.05 |
| A11G G36U C46A | 0.03 |
| C8U C10G C13U C31A | 0.05 |
| G30C G36C A41G | 0.08 |
| G1A A16C U43A C45G | 0.03 |
| C3U G7U U9A C13U U20A U34C C37U | 0.15 |
| C23U A25C C45G | 0.05 |
| G7A A14U G21A A24U G35A | 0.41 |
| G5A A14U G19U C37U | 0.13 |
| G2U A16U G17U G27A | 0.06 |
| C15U G17U G40C | 0.22 |
| C3G G33U C46G | 0.04 |
| G19C U20A U34C | 0.29 |
| A16U U28G G35C | 0.01 |
| A11U A12C G29C C42G | 0 |
| G5C C23A A26U A39G C42U U43C | 0.01 |
| C13U A16G C18U | 0.03 |
| A12G C18U G19U C37U | 0.04 |
| A4U G5U U9A | 0.12 |
| C15G A26C G30A U32A G36A A41U | 0.02 |
| C8G C10A A14G U20A | 0.03 |
| C15U A16U U34C G35U U38C | 0.02 |
| A16U G21C U34A | 0.02 |
